Experimental data: the supplement of paper PMC3724861
This is one part of the list.

Test system: T1, Caupolican (Caup) homeodomain DNA-binding domain
T1 sequence: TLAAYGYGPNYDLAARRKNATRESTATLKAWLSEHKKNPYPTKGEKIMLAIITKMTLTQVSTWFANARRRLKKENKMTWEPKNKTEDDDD
Experiment: PBM E-score (8-mer, recovered from the published 9-mer minima) (E-score (dimensionless, -0.5 to 0.5)); Drosophila protein; higher = stronger relative binding preference, active = 0.31 or more
Method in brief: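 An enrichment score, with higher meaning stronger, expresses relative binding preference for each short DNA word. The protein used was Caup's homeodomain DNA-binding domain (residues 214-303), produced by in vitro transcription and translation and tested at 100 nM on custom-designed protein binding microarrays. The 8-mer values were recovered from published 9-mer scores, each equal to the lower of its two constituent 8-mer scores.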

| Sequence | PBM E-score |
| --- | --- |
| CAATCAAA | inactive: 0.14 |
| AACAATCC | inactive: 0.151 |
| CCCCTGTA | inactive: 0.113 |
| CGGCTGTC | inactive: -0.0751 |
| ACACTAAT | inactive: 0.13 |
| TAGATTAA | inactive: 0.0851 |
| GATCAGAC | inactive: -0.0261 |
| AAGCCTCG | inactive: -0.166 |
| CCGCCCGC | inactive: -0.315 |
| ATTATTGC | inactive: 0.169 |
| CCAAACAA | inactive: 0.16 |
| ACACCATG | inactive: 0.168 |
| GGAAACAA | inactive: 0.187 |
| AGTTGTGA | inactive: 0.143 |
| AATACGGC | inactive: 0.00511 |
| ACGAATAC | inactive: 0.146 |
| GAGATATA | inactive: 0.0512 |
| ATTCCTTC | inactive: -0.0217 |
| ATCCACAA | inactive: 0.0335 |
| CACGTCGC | inactive: -0.0859 |
| GCAGGAGC | inactive: -0.155 |
| CACACTCG | inactive: 0.0334 |
| CAGCTGAC | inactive: -0.0534 |
| ACGGCAGT | inactive: -0.0873 |

| Sequence | PBM E-score |
| --- | --- |
| AAGGCGAC | inactive: 0.00668 |
| CGTTGTGC | inactive: 0.0498 |
| CTATCGGC | inactive: -0.117 |
| AGGAGGCG | inactive: -0.257 |
| GAGGCACA | inactive: -0.116 |
| CGCGGTTC | inactive: -0.123 |
| TAAGCGTA | inactive: -0.0033 |
| CCAGCGCA | inactive: -0.15 |
| GTTACAAA | inactive: 0.285 |
| AAGGTACC | inactive: -0.127 |
| TACCCTCA | inactive: -0.0982 |
| GCCCAGTA | inactive: -0.0895 |
| AGGGGCTC | inactive: -0.299 |
| ATGGTAGC | inactive: 0.00537 |
| GACGAACC | inactive: -0.0687 |
| ACTTGTAC | active: 0.407 |
| CCTCTTCC | inactive: -0.208 |
| CCTTCCAC | inactive: -0.15 |
| GGGCATTA | inactive: -0.0527 |
| CTTAGCTC | inactive: -0.183 |
| AATTACCT | inactive: 0.0993 |
| GCTCACTA | inactive: 0.0451 |
| CTTAGACC | inactive: -0.0746 |
| ACCGGCAC | ≥ 0.0136 |

| Sequence | PBM E-score |
| --- | --- |
| ACAGTGAG | inactive: 0.015 |
| AGAGGGAG | inactive: -0.11 |
| AAAATCTT | inactive: 0.0333 |
| CAGTCTAA | inactive: 0.05 |
| TCGGTAGA | inactive: 0.0297 |
| GGCTAGCC | inactive: -0.273 |
| ACGGGCTG | inactive: -0.163 |
| AGTTAACG | inactive: 0.113 |
| TGACCCCA | inactive: -0.138 |
| GGGGGGCA | inactive: -0.344 |
| GGCCGTTA | inactive: -0.0889 |
| CAGGTAGA | inactive: 0.00516 |
| CAGGAAGG | inactive: -0.2 |
| CTTCCATA | inactive: -0.00772 |
| AGATGATG | inactive: 0.0748 |
| ACCCCAGT | ≥ -0.124 |
| GTCGTTTA | inactive: 0.148 |
| ACTTCTTA | ≥ 0.111 |
| TACTGAGA | inactive: -0.0179 |
| GTGCAGGA | inactive: -0.00228 |
| AAGTTCCG | inactive: 0.00675 |
| AAACGGGA | inactive: -0.0164 |
| AAGCTCCT | inactive: -0.0876 |
| AAAAATCG | inactive: -0.0795 |

| Sequence | PBM E-score |
| --- | --- |
| CAGCTCTA | inactive: -0.0882 |
| CTATGATA | inactive: 0.0827 |
| GCCCCGAA | inactive: -0.185 |
| TGCCGGCA | ≥ -0.134 |
| CATGGGGG | inactive: -0.157 |
| GCATCCCA | inactive: -0.136 |
| GGTTGGTA | inactive: 0.0654 |
| AAAGCAGG | inactive: -0.0736 |
| AGCATAGC | inactive: 0.0549 |
| GGTCTCTA | inactive: -0.125 |
| CGCTACCG | inactive: -0.0887 |
| AGCGATCA | inactive: -0.0526 |
| GGAGTAAC | inactive: -0.087 |
| CAGCGCGA | inactive: -0.0786 |
| GCGTGTGA | inactive: 0.0667 |
| AACGACCT | inactive: -0.0586 |
| CATTGCGG | inactive: -0.0397 |
| CTGTGTGA | inactive: 0.0354 |
| ATCGCAAG | inactive: -0.0386 |
| CAGGGGCG | inactive: -0.11 |
| ACCCGTAG | inactive: -0.147 |
| ACAACCTC | inactive: 0.169 |
| CGCTTATC | inactive: 0.00864 |
| CCAGTAAC | inactive: -0.0237 |

| Sequence | PBM E-score |
| --- | --- |
| AACGCCTC | inactive: -0.12 |
| CTAAAGTA | inactive: -0.0211 |
| GGTGTACA | active: 0.327 |
| CTTCCCCA | inactive: -0.203 |
| AGAATGGA | inactive: 0.0301 |
| CCAATTTA | inactive: 0.143 |
| AGCCTGCA | inactive: -0.0518 |
| CTATATAG | inactive: 0.0101 |
| ATTGCCGA | ≥ 0.0403 |
| GTTGGATA | inactive: 0.0774 |
| ATAGGGTG | inactive: -0.0464 |
| ATTATCAA | inactive: 0.159 |
| CCGCAACG | inactive: -0.123 |
| AACTGATC | inactive: 0.0687 |
| CCATCCAC | inactive: -0.00804 |
| TCATATCA | inactive: 0.14 |
| ATCGCTCC | inactive: -0.136 |
| TCAAGAGA | inactive: 0.0534 |
| ACTCTTGG | inactive: -0.044 |
| CTCCGACA | inactive: 0.119 |
| AGGCTCTA | inactive: -0.12 |
| CCCATCGG | inactive: -0.172 |
| CAGCCCGG | inactive: -0.261 |
| GCGCGTAC | inactive: -0.0837 |

| Sequence | PBM E-score |
| --- | --- |
| CATAAGGA | inactive: 0.00552 |
| AGTCATCC | inactive: -0.0516 |
| CCCGGAAA | inactive: -0.0542 |
| ACTAGCGC | inactive: -0.134 |
| AAAGAGAG | inactive: -0.0837 |
| CAGGATCG | inactive: -0.0491 |
| ACACCGAG | inactive: 0.108 |
| CCTGGAAG | inactive: -0.15 |
| CTGCCGAA | inactive: -0.181 |
| AATGGAAG | inactive: -0.0577 |
| ACTGGCGA | ≥ -0.0646 |
| CACTACCC | inactive: -0.0519 |
| ACGACATC | inactive: 0.26 |
| CAATTTCG | inactive: 0.0243 |
| ACTAATCA | ≥ 0.205 |
| CGGGAGAA | inactive: -0.0618 |
| TACGGGAA | inactive: -0.0264 |
| AGGAGTTA | inactive: 0.0649 |
| ACCACCCG | inactive: -0.145 |
| AACGTATG | inactive: 0.138 |
| CAAGAGGG | inactive: -0.0577 |
| ATGGATGA | inactive: 0.0411 |
| ATCCGTTG | inactive: 0.105 |
